About 2,200 (0.71%) of roughly 310,000 compounds showed an effect of 50% or more. Effects have a minus sign here. The list shows a part of the results.
What follows are compounds tested against human ether-à-go-go-related gene (hERG) potassium channel (human, UniProt Q12809) (assay: primary screen, population patch clamp on CHO cells stably expressing hERG).
human ether-à-go-go-related gene (hERG) potassium channel, sequence (Q12809 whole entry, looked up): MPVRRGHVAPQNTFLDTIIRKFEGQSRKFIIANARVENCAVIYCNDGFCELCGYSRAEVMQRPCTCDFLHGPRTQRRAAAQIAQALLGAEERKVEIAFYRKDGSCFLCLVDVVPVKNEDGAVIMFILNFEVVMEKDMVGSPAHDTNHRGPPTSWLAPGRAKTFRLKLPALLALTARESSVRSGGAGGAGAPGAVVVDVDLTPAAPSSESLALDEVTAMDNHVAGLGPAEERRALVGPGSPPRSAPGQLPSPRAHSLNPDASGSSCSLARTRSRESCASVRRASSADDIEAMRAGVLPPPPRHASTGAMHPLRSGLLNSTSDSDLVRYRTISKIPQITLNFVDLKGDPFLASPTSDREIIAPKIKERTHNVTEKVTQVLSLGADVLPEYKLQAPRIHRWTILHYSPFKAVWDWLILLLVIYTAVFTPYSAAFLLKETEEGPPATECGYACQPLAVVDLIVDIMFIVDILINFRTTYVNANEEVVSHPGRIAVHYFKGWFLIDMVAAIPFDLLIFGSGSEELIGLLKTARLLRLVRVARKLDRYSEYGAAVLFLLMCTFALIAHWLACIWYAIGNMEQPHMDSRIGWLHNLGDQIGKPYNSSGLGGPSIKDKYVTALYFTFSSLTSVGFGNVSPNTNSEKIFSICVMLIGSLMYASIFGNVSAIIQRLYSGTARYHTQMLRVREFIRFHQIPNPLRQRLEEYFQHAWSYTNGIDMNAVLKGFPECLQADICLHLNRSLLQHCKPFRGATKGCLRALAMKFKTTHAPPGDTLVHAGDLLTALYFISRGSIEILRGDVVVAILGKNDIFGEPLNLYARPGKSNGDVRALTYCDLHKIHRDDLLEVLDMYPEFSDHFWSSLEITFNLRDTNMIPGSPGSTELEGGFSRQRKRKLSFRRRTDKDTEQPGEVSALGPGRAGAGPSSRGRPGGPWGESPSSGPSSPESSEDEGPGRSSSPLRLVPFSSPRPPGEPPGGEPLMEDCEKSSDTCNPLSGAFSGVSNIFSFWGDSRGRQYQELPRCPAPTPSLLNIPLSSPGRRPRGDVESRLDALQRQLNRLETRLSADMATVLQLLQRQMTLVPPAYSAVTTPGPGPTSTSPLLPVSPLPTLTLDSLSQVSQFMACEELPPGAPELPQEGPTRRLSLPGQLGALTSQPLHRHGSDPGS

Row | Structure (SMILES) | hERG current change (%, negative = inhibition) at 1uM
1 | CCCn1c(SCN2C(=O)c3ccccc3C2=O)nc2cc(Cl)ccc2c1=O | 8.9%
2 | CCC(C)C(NS(=O)(=O)c1ccc(C)cc1)C(=O)Oc1ccc2c3c(c(=O)oc2c1)CCC3 (stereo not drawn) | 11.3%
3 | O=C(Cn1nnc2c(cnn2-c2ccc(F)cc2)c1=O)Nc1ccccc1C(F)(F)F | 1.13%
4 | CCOc1ccc(Cl)cc1/C=C1/C(=O)ON=C1C | 17.4%
5 | COc1ccc(/C=C2\SC(=Nc3ccccc3)NC2=O)cc1 | 14.2%
6 | COc1cc(/C=N/NC(=O)CSc2n[nH]c(=O)[nH]c2=O)cc(OC)c1O | 15.9%
7 | CCC(=O)N(CC(=O)Nc1sc(C)c(C)c1C(N)=O)C1CCCC1 | 5.57%
8 | Cc1ccc(N2C(S)=C(C#N)C(=O)NC2c2ccco2)cc1 (stereo not drawn) | 1.45%
9 | COC(=O)C1=C(c2c(C)noc2C)C[C@@H]2CC[C@H]1N2C(=O)NCCOc1ccccc1 | 14.2%
10 | Clc1ccccc1/C=N/Nc1cc(N2CCOCC2)ncn1 | 16.9%
11 | COC(=O)CCCN=C1SCCN1Cc1ccccc1 | 13.7%
12 | Cc1cc(NS(=O)(=O)c2ccccc2)no1 | 12%
13 | COc1ccc(S(=O)(=O)N(C)c2ccc(C(=O)Nc3ccccc3C(=O)N3CCOCC3)cc2)cc1OC | 14.6%
14 | O=C(NCCc1ccccc1)c1nc(CS(=O)(=O)c2ccc(Cl)cc2)no1 | 13.1%
15 | CCOC(=O)c1sc(NCCNc2nc(C)c(C(=O)OCC)s2)nc1C | 6.51%
16 | COc1cc(/C(C)=N/NC(=O)C(O)(c2ccccc2)c2ccccc2)ccc1O | -0.201%
17 | Cc1cccc(Cn2c(C)c(C)c3cc(C(=O)NCCN4CCOCC4)ccc32)c1 | 9.03%
18 | CCN(Cc1ccccc1)C(=O)C1CCN(c2ncnc3c2nc2n3CCCCC2)CC1 | 13.7%
19 | CCOC(=O)[C@@H]1[C@H]2COc3cc(OC)ccc3[C@@H]2N2C(=O)N(c3cccc(C)c3)C(=O)[C@@]12C | 4.15%
20 | O=S(=O)(Nc1cccc2cccnc12)c1ccccc1 | 13%
21 | Cc1ccccc1NC(=O)c1cccc2nc3ccccc3nc12 | 12.5%
22 | COc1ccc(NC(=O)CCNC(=O)c2ccco2)cc1Cl | 12.7%
23 | CCN1CCCC1CNC(=O)C(=O)NC(C)c1ccccc1 (stereo not drawn) | 7.78%

Row | Structure (SMILES) | hERG current change (%, negative = inhibition) at 1uM
24 | CC(C)C(=O)Nc1nnc(Cc2ccccc2)s1 | -12.3%
25 | Cc1[nH]n2c(=O)cc(C(C)(C)C)nc2c1-c1ccccc1 | -2.57%
26 | CCCOC(=O)/C(=C\C=C\c1ccccc1)NC(=O)c1ccccc1 | 12.7%
27 | CCC1c2ccc(C)n2CCN1C(=O)Nc1ccc(F)cc1 (stereo not drawn) | 7.57%
28 | COCCCNC(=O)c1cn(CCOC)c(=O)c2c1c1ccccc1n2C | 13.1%
29 | O=C(NCc1ccc(F)cc1)C1CCCN1S(=O)(=O)c1ccccc1C(F)(F)F (stereo not drawn) | 5.13%
30 | Clc1ccccc1Cn1nnc2c(Nc3ccccc3)ncnc21 | 5.61%
31 | Cc1cc(SCC(=O)c2cccs2)nc2ccccc12 | -0.195%
32 | C=CCC(NCc1ccccc1)c1ccc(OC)cc1.O=C(O)C(=O)O (stereo not drawn) | 15.5%
33 | NC(=O)C1CCN(C(=O)c2cc3c(s2)CCCCC3)CC1 | 8.45%
34 | C#Cc1ccc([C@H]2C=C(C(=O)N3CCN(Cc4ccccc4)CC3)O[C@@H](OCC)[C@@H]2CCCO)cc1 | 8.12%
35 | C/C(CC(=O)C(F)(F)F)=N\NC(=O)/C(C#N)=C/N(C)C | 10.3%
36 | Cc1ccsc1CNS(=O)(=O)c1ccc(F)cc1 | 1.61%
37 | CC/C=C\C/C=C\C/C=C\CCCCCCCC(=O)O | 9.04%
38 | O=C(Nc1cc(=O)[nH]c2ncnn12)c1ccccc1 | -13.3%
39 | COc1ccccc1C1C(C(=O)c2cc3ccccc3o2)=C(O)C(=O)N1CCN(C)C (stereo not drawn) | 16.9%
40 | CC(=O)N1CCN(c2ccc(NC(=O)c3ccc(C(C)(C)C)cc3)cc2)CC1 | 16%
41 | Cc1ccc(/C=C/C(=O)Nc2nnc(C)s2)o1 | 15.5%
42 | CCOc1ccc(NC(=O)CSc2n[nH]c(=O)n2-c2ccccc2)cc1 | 2.07%
43 | Cc1ccc(C(=O)c2cc3ccccc3o2)cc1C | 8.45%
44 | CCOC(=O)N1CCC(Nc2nc3ccccc3nc2NS(=O)(=O)c2ccc(Cl)cc2)CC1 | 8.73%
45 | Cc1[nH]ccc(=O)c1OCc1ccccc1 | 25.2%
